{"source": "patent US20250002557A1", "about": "(SUZHOU LIGHT FERRY BIOMED, published 2025)", "binders": {"B1": {"name": "LFV-S Recombinant receptor molecule (Fc fusion)", "chain": "YVQDYRSPFIASVSDQHGVVYITENKNKTVVIPCLGSISNLNVSLCARYPEKRFVPDGNRISWDSKKGFTIPSYMISYAGMVFCEAKINDESYQSIMYIVVVVGYRIYDVVLSPSHGIELSVGEKLVLNCTARTELNVGIDFNWEYPSSKHQHKKLVNRDLKTQSGSEMKKFLSTLTIDGVTRSDQGLYTCAASSGLMTKKNSTFVRVHEKGGGGSGRPFVEMYSEIPEIIHMTEGRELVIPCRVTSPNITVTLKKFPLDTLIPDGKRIIWDSRKGFIISNATYKEIGLLTCEATVNGHLYKTNYLTHRQTNTIIGPG[here human IgG1 Fc without letters]"}, "B2": {"name": "LFV-P Recombinant receptor molecule (Fc fusion)", "chain": "YVQDYRSPFIASVSDQHGVVYITENKNKTVVIPCLGSISNLNVSLCARYPEKRFVPDGNRISWDSKKGFTIPSYMISYAGMVFCEAKINDESYQSIMYIVVVVGYRIYDVVLSPSHGIELSVGEKLVLQCTARTELNVGIDFNWEYPSSKHQHKKLVNRDLKTQSGSEMKKFLSTLTIDGVTRSDQGLYTCAASSGLMTKKNSTFVRVHEKGPG[here human IgG1 Fc without letters]"}, "B3": {"name": "OPT (Fc fusion)", "chain": "YSMTPPTLNITEESHVIDTGDSLSISCRGQHPLEWAWPGAQEAPATGDKDSEDTGVVRDCEGTDARPYCKVLLLHEVHAQDTGSYVCYYKYIKARIEGTTAASSYVFVRDFEQPFINKPDTLLVNRKDAMWVPCLVSIPGLNVTLRSQSSVLWPDGQEVVWDDRRGMLVSTPLLHDALYLQCETTWGDQDFLSNPFLVHITGNELYDIQLLPRKSLELLVGEKLVLNCTVWAEFNSGVTFDWDYPGKQAERGKWVPERRSQQTHTELSSILTIHNVSQHDLGSYVCKANNGIQRFRESTEVIVHE[here human IgG1 Fc without letters]", "notes": "also called control article OPT"}}, "key": {"VEGF-C [1]": {"biological_target": "T1, VEGF-C (UniProt P49767 112-227, limits assumed)", "T1 construct": "Bought reagent", "T1 sequence (looked up)": "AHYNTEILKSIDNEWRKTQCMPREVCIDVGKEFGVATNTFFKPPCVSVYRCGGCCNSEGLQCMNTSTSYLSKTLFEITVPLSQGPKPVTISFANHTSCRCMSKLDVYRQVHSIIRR", "test": "blocking ELISA: His-VEGF-C premixed with sample, binding to coated VEGFR2-Fc read with anti-His-HRP", "protocol": "(§1) During the blocking period, each recombinant receptor molecule was serially diluted from high to low concentrations, mixed evenly with 100 ng/well of VEGF-C or VEGF-D (both labeled with His-tag), allowing for incubation at room temperature for 30 minutes. […] The plates were washed with PBST, then anti-polyhistidine secondary antibody conjugated with horseradish peroxidase was added to allow for incubation and binding at room temperature for 1 hour. Then the plates were washed with PBST, TMB was added for color development, terminated with 5% hydrochloric acid solution, and finally, the OD values at 450 nm were read using a microplate reader."}, "VEGF-A165 [2]": {"biological_target": "T2, VEGF-A165 (UniProt P15692-4 27-191)", "T2 construct": "Bought reagent", "T2 sequence (looked up)": "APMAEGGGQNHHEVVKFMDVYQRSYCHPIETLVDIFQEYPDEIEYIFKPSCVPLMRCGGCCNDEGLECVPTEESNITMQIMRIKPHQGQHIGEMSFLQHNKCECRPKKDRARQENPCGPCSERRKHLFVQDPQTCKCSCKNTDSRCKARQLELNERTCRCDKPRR", "test": "blocking ELISA: His-VEGF-A165 premixed with sample, binding to coated VEGFR2-Fc read with anti-His-HRP"}, "VEGF-A165 [3]": {"biological_target": "T2, VEGF-A165", "test": "blocking ELISA: His-VEGF-A165 premixed with sample, binding to coated VEGFR1-Fc read with anti-His-HRP"}, "PIGF [4]": {"biological_target": "T3, PIGF (UniProt P49763-2 19-149, limits assumed)", "T3 construct": "Bought reagent; also called PLGF; placental growth factor", "T3 sequence (looked up)": "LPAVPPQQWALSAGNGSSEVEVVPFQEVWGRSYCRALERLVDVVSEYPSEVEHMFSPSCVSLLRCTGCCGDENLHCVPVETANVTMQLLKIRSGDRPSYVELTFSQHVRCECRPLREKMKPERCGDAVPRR", "test": "ELISA, PlGF coated, anti-human Fc-HRP, OD450"}, "VEGF-D [5]": {"biological_target": "T4, VEGF-D (UniProt O43915 89-205, limits assumed)", "T4 construct": "Bought reagent", "T4 sequence (looked up)": "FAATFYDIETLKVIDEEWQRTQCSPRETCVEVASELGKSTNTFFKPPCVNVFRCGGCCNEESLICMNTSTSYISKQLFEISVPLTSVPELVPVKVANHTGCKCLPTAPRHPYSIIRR", "test": "blocking ELISA: His-VEGF-D premixed with sample, binding to coated VEGFR2-Fc read with anti-His-HRP", "protocol": "as §1"}, "VEGF-B [6]": {"biological_target": "T5, VEGF-B (UniProt P49765-2 22-188, limits assumed)", "T5 construct": "Bought reagent", "T5 sequence (looked up)": "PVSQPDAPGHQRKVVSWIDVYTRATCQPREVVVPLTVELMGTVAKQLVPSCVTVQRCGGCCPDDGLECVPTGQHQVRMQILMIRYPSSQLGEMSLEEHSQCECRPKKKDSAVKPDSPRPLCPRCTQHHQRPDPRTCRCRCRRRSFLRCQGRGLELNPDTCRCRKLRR", "test": "ELISA, VEGF-B coated, anti-human Fc-HRP, OD450"}, "VEGF-D [7]": {"biological_target": "T4, VEGF-D", "test": "blocking ELISA: His-VEGF-D premixed with sample, binding to coated VEGFR2-Fc read with anti-His-HRP", "protocol": "as §1", "remark": "listed apart in the source"}, "VEGF-C [8]": {"biological_target": "T1, VEGF-C", "test": "blocking ELISA: His-VEGF-C premixed with sample, binding to coated VEGFR2-Fc read with anti-His-HRP", "protocol": "as §1", "remark": "listed apart in the source"}, "VEGF-A165 [9]": {"biological_target": "T2, VEGF-A165", "test": "blocking ELISA: His-VEGF-A165 premixed with sample, binding to coated VEGFR2-Fc read with anti-His-HRP", "remark": "listed apart in the source"}, "VEGF-B [10]": {"biological_target": "T5, VEGF-B", "test": "ELISA, VEGF-B coated, anti-human Fc-HRP, OD450", "remark": "listed apart in the source"}, "VEGF-C [11]": {"biological_target": "T1, VEGF-C", "test": "blocking ELISA, VEGF-C-His to coated VEGFR2-Fc", "protocol": "as §1"}, "VEGF-C [12]": {"biological_target": "T1, VEGF-C", "test": "blocking ELISA, VEGF-C-His to coated VEGFR3-Fc", "protocol": "(§2) During the blocking period, each recombinant receptor molecule was serially diluted from high to low concentrations, mixed evenly with 10 ng/well of VEGF-C or 500 ng/well of VEGF-D (both labeled with His-tag), allowing for incubation at room temperature for 30 minutes. […] The plates were washed with PBST, then TMB was added for color development, terminated with 5% hydrochloric acid solution, and finally, the OD values at 450 nm were read using a microplate reader."}, "VEGF-D [13]": {"biological_target": "T4, VEGF-D", "test": "blocking ELISA, VEGF-D-His to coated VEGFR2-Fc; row head prints uM, ng/ml row implies nM", "protocol": "as §1"}, "VEGF-D [14]": {"biological_target": "T4, VEGF-D", "test": "ELISA binding to VEGF-D, OD450"}, "VEGF-C [15]": {"biological_target": "T1, VEGF-C", "test": "ELISA binding to VEGF-C, absorbance 450 nm"}, "VEGF-D [16]": {"biological_target": "T4, VEGF-D", "test": "blocking ELISA, VEGF-D-His to coated VEGFR2-Fc", "protocol": "as §1"}, "VEGF-C [17]": {"biological_target": "T1, VEGF-C", "test": "ELISA, coated VEGF-C, anti-human Fc-HRP"}, "VEGF-D [18]": {"biological_target": "T4, VEGF-D", "test": "blocking ELISA, VEGF-D to VEGFR3 (Example 13)"}, "VEGF-D [19]": {"biological_target": "T4, VEGF-D", "test": "blocking ELISA, VEGF-D-His to coated VEGFR3-Fc", "protocol": "as §2"}, "VEGF-D [20]": {"biological_target": "T4, VEGF-D", "test": "SPR Biacore T200, trap captured on Protein A chip, antigen in flow; row shifted, N/A cell spans VEGF-A"}, "VEGF-C [21]": {"biological_target": "T1, VEGF-C", "test": "SPR Biacore T200, trap captured on Protein A chip, antigen in flow; row shifted, N/A cell spans VEGF-A"}, "PIGF [22]": {"biological_target": "T3, PIGF", "test": "ELISA, PlGF coated, anti-human Fc-HRP, OD450", "remark": "listed apart in the source"}, "VEGF-C [23]": {"biological_target": "T1, VEGF-C", "test": "blocking ELISA, VEGF-C to VEGFR2 (Example 13)"}, "VEGF-D [24]": {"biological_target": "T4, VEGF-D", "test": "blocking ELISA, VEGF-D to VEGFR2 (Example 13)"}, "VEGF-C [25]": {"biological_target": "T1, VEGF-C", "test": "blocking ELISA, VEGF-C-His to coated VEGFR3-Fc; row head prints uM, ng/ml row implies nM", "protocol": "as §2"}}, "note": "“And” between values parts separate entries of the source, which are not always exact repeats. Equal entries are not always repeated."}
{"binder": "B1", "values": [{"measurement": "EC50", "setting": "VEGF-C [1]", "value": 14.4, "unit": "nM"}, {"measurement": "EC50", "setting": "VEGF-A165 [2]", "value": 3.02, "unit": "nM"}, {"measurement": "EC50", "setting": "VEGF-A165 [3]", "value": 6.59, "unit": "nM"}, {"measurement": "EC50", "setting": "PIGF [4]", "value": 0.436, "unit": "nM"}, {"measurement": "EC50", "setting": "VEGF-D [5]", "value": 5.38, "unit": "nM"}, {"measurement": "EC50", "setting": "VEGF-B [6]", "value": 1.8, "unit": "nM"}]}
{"binder": "B2", "values": [{"measurement": "EC50", "setting": "VEGF-D [7]", "value": 1.09, "unit": "nM"}, {"measurement": "EC50", "setting": "VEGF-C [1]", "value": 11.4, "unit": "nM"}, {"measurement": "EC50", "setting": "VEGF-C [8]", "value": 5.66, "unit": "nM"}, {"measurement": "EC50", "setting": "VEGF-A165 [2]", "value": 3.1, "unit": "nM"}, {"measurement": "EC50", "setting": "VEGF-A165 [3]", "value": 27.2, "unit": "nM"}, {"measurement": "EC50", "setting": "VEGF-D [5]", "value": 4.12, "unit": "nM"}, {"measurement": "EC50", "setting": "VEGF-A165 [9]", "value": 2.26, "unit": "nM"}]}
{"binder": "B3", "values": [{"measurement": "EC50", "setting": "VEGF-D [7]", "value": 7.39, "unit": "nM"}, {"measurement": "binding result", "setting": "VEGF-B [10]", "value": "no binding (tested: log10 2 (100 nM))"}, {"measurement": "EC50", "setting": "VEGF-C [1]", "value": 14.5, "unit": "nM"}, {"measurement": "EC50", "setting": "VEGF-C [11]", "value": "3.57 µg/mL and 29.7 nM"}, {"measurement": "EC50", "setting": "VEGF-C [12]", "value": 0.3, "unit": "µg/mL"}, {"measurement": "EC50", "setting": "VEGF-D [13]", "value": 2010, "unit": "nM"}, {"measurement": "EC50", "setting": "VEGF-D [14]", "value": 387, "unit": "nM"}, {"measurement": "EC50", "setting": "VEGF-C [15]", "value": 0.544, "unit": "nM"}, {"measurement": "EC50", "setting": "VEGF-C [8]", "value": 13.7, "unit": "nM"}, {"measurement": "EC50", "setting": "VEGF-D [16]", "value": 0.241, "unit": "µg/mL"}, {"measurement": "EC50", "setting": "VEGF-C [17]", "value": "0.45 nM and 0.0546 µg/mL"}, {"measurement": "EC50", "setting": "VEGF-D [18]", "value": 25.2, "unit": "nM"}, {"measurement": "EC50", "setting": "VEGF-D [19]", "value": "0.688 µg/mL and 5.73 nM"}, {"measurement": "Kd", "setting": "VEGF-D [20]", "value": 17.9, "unit": "nM"}, {"measurement": "koff", "setting": "VEGF-D [20]", "value": 0.000311, "unit": "s⁻¹"}, {"measurement": "kon", "setting": "VEGF-D [20]", "value": 17400, "unit": "M⁻¹ s⁻¹"}, {"measurement": "Kd", "setting": "VEGF-C [21]", "value": 0.0507, "unit": "nM"}, {"measurement": "koff", "setting": "VEGF-C [21]", "value": 0.000167, "unit": "s⁻¹"}, {"measurement": "kon", "setting": "VEGF-C [21]", "value": "3.29e+06", "unit": "M⁻¹ s⁻¹"}, {"measurement": "binding result", "setting": "PIGF [22]", "value": "no binding (tested: log10 2 (100 nM))"}, {"measurement": "EC50", "setting": "VEGF-D [5]", "value": 13.7, "unit": "nM"}, {"measurement": "EC50", "setting": "VEGF-C [23]", "value": 32.1, "unit": "nM"}, {"measurement": "EC50", "setting": "VEGF-D [24]", "value": 24.6, "unit": "nM"}, {"measurement": "EC50", "setting": "VEGF-C [25]", "value": 2500, "unit": "nM"}]}
